Measurements: the supplement of paper PMC3334620
Whole data set: some 33,000 sequences, median “E-score (-0.5 to 0.5)” near -0.01, cut for the highest 2% near 0.26. The list shows a part of the results.

Each sequence was assayed against Ste12 (UniProt P13574) (assay: PBM E-score (8-mer binding enrichment) (E-score (-0.5 to 0.5)); higher = stronger / more preferred TF binding; most listed sequences are background and not binding sites). Settings: protein concentration: 200 nM; construct: GST-DNA-binding domain.
How it was run: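 Bound GST-tagged yeast transcription factors, applied at about 100-200 nM to double-stranded universal all-10-mer Agilent arrays, were detected with fluorescent anti-GST. Scans were normalised with masliner. A modified Wilcoxon-Mann-Whitney statistic, the E-score, was assigned to each ungapped eight-base word pooled with its reverse complement by the Universal PBM Analysis Suite.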

Sequence	PBM E-score
AGGTAACA	0.204
GCAATCCC	0.0206
AAGCAGCG	0.0443
ACAGTCGA	-0.135
AAAAGAAA	0.249
GCACTACC	-0.0568
CAGAACGC	-0.125
GAACCCGA	-0.0553
AGCCCACG	-0.16
ACAACAGC	0.0715
CTGCTTAC	-0.0876
AAAGGGCA	-0.124
ATAAGACA	0.124
CAACTTCA	0.0197
TGGGAACA	0.0758
AGTTCTGA	-0.00185
CGCGTATC	0.134
AGGTAATC	-0.0724
ATTCCGGG	-0.0224
AGACGAAG	-0.147
CGACGATA	-0.104
AAATGCAA	-0.0878
AACGTGGA	0.0727
CATGAAGA	-0.0377
AAGGGAGT	-0.232

Sequence	PBM E-score
GTCCTATA	-0.103
GTGTCTAA	-0.0504
ACGACTTG	-0.0158
ACGCAAAG	-0.0571
AAAGTCCT	-0.0695
AGCTCAAG	-0.142
ACACTATG	-0.121
ACTTGTAT	0.143
GGGCAACC	-0.248
CCACCGAG	-0.0702
GCGCGAGC	-0.033
CTATAGGC	-0.127
CTTGAAAG	-0.0999
ATAGTCCA	-0.128
AGCATCAG	-0.0547
CATATTTC	0.13
CCGATTGC	0.114
CAACAATG	0.0944
CGTTCCCA	-0.253
CCCCATAG	-0.145
GTGGACAC	-0.0883
CCGTCGAA	0.0168
ACGAGGTA	-5e-05
AAATATTA	0.352
ATCAATCC	0.0719

Sequence	PBM E-score
CTAAGTCC	-0.178
GCACGCGA	-0.0629
GGGGTGAC	0.0481
CTGAGTTC	-0.0109
CTCACTCC	0.0526
TACCCAAA	0.161
CCGCAAAC	0.0207
AATTAAGC	0.202
CCTGAGTA	0.0732
CTTGGTGA	0.0651
GAATAAGA	0.0864
CTGGCCGC	0.0105
CTCAGTAA	-0.162
AGCGATGG	-0.128
AAATGCTG	0.0301
CACAGGCC	-0.051
GGGCACAC	-0.0766
CTGGAATC	0.0307
TCATTGAA	0.0621
GAGCGGGA	-0.0205
CATTTCGA	-0.046
AAATTATA	0.227
CATCTGGC	-0.104
CATAGCCC	-0.159
ATAAACTG	0.302

Sequence	PBM E-score
TAGAATAA	0.253
CCGGAAGG	-0.0255
AACTATGC	0.0607
CTTTAACC	0.0746
ACGTTGAG	-0.132
AAGCCAAA	-0.0889
GCATCTTA	0.0891
CGCAGAGC	-0.103
CTAACTGC	-0.113
AACCCCCC	-0.183
ATGCCCCC	-0.0837
AAAAGCGA	0.248
GTCCTTGA	-0.15
CCTATGCG	-0.073
AACCGTCG	-0.114
ATCCCGCA	0.126
CATCGTGC	-0.00012
CCATTACA	0.231
CGGAGCCA	-0.0291
GAGGGCAC	-0.234
ATTATAAG	0.123
GCTTAGGA	0.032
ACGGCAAA	0.277
AGCCCCCC	-0.242
CAATATCG	0.00591

Sequence	PBM E-score
ACCCTTTA	-0.0282
CCGAAAAC	0.0124
AAGACTGA	-0.0229
GAGACTAC	-0.186
ACATACAG	0.0443
CCAATTAC	0.161
AATGGTAG	0.174
GACCACAA	0.00676
GTCGCTGA	0.0069
CATCAAGG	-0.0881
GTACTAAC	0.146
CTCCGTGA	-0.0941
ACCTACAG	-0.0305
ATGTTTCG	0.366
CGTGGTAA	-0.0665
ATTTGTGC	0.0998
CCACCTGG	-0.129
ACCGCTAT	-0.0646
TAAGGAGA	-0.159
ATCCACCG	0.0495
CCCTTGAA	-0.0711
CAGACTGC	0.0705
GTGAATGA	0.0722
ACTTTGGG	0.0211
AAGGTACG	-0.181

Sequence	PBM E-score
AGAGATAG	-0.063
GCCGGGCA	-0.141
ATACTTGA	-0.122
TCTAAGAA	0.11
ACAATTAC	0.087
AGACCGCG	-0.0736
ACTCGTAG	-0.0901
GCCAGCGC	-0.00583
AACCCCTA	0.00675
AGTCAGAC	-0.142
GAAAATGC	0.017
CCTATCAG	-0.183
AGCCGATC	0.15
CAGATACC	-0.135
ATCAACGG	0.148
ACTGGTTG	0.0694
GCAATGCA	-0.0515
AGAGCCTG	-0.24
GGGGCGGA	0.404
TACACTCA	0.107
CATCCGGA	-0.123
ACCCACCA	0.0136
ATGTCGAA	0.0355
AGACTCAA	-0.12
CTAAAACA	0.355

Sequence	PBM E-score
CCTCGGTC	-0.103
CATTAGAG	-0.0419
CTTAGAAC	-0.126
AATGAATG	0.292
CGAATGGA	-0.00694
TGTTTTAA	0.364
CATACACA	-0.13
AATTAAAA	0.308
ATTCCCGA	0.17
ACGTTTAC	-0.072
GTCCACCA	-0.342
CAGTTTGG	-0.031
GCGTGAGC	-0.0363
CCTCTTTC	-0.0876
CATTACAC	0.0891
GGTTCTAA	0.0575
CGATATGC	0.0118
AAGTGGCG	-0.00032
CATTCTGG	-0.0361
CTGAAGGA	-0.0367
CTCTAACA	0.0177
CTCTAGTA	-0.0968
AATTCTTC	0.114
ACCACGAT	0.0269
GCTCGTGA	0.0372

Sequence	PBM E-score
AGTAGTCC	-0.103
AAAAGCAG	0.0867
GGTGATAC	0.0554
ACCGCGTC	-0.0299
TATCGTAA	0.161
AAAGGTTA	-0.0226
ACCGCCGC	0.0865
ATTAGCAA	0.154
CCGAGAGC	-0.0913
CTAACCTC	-0.0539
AGGCCCAT	-0.0986
GAGGCCCC	-0.18
AAAGGAAC	0.00662
GCGCCCAA	-0.061
TCTATAGA	-0.21
GCGAAACC	0.179
ACGGGTAA	-0.0262
CAGCTTGG	-0.044
GCATGGCA	0.0131
CACCGCAC	-0.00376
CTGCGTAC	-0.171
CCCAAGCC	-0.0593
AATCGATT	0.118
CAGCCACA	-0.00088
CTGGCACC	-0.177

Sequence	PBM E-score
CATGAACG	-0.128
AGTCTCAC	-0.0677
GGGGGCGA	-0.311
ATTATCAC	0.134
TATCTTAA	0.212
AATACGTA	0.153
CCAGATGA	0.0714
TAGGTCCA	-0.205
ACGGGAGC	-0.111
CACAGCAG	0.112
ATAAGGAC	-0.015
CAACGGTA	-0.109
ACACGTGC	-0.00451
ATCATGCA	-0.125
CTCAATTC	0.0654
CTCACGAG	-0.0739
AGAGGTTC	0.102
GCGAAACA	0.134
ACCATTGC	0.0901
